Experiment [1] addresses T1, IscS, cysteine desulfurase (E. coli), dimer with PLP bound (E. coli), P0A6B7.
T1 chain: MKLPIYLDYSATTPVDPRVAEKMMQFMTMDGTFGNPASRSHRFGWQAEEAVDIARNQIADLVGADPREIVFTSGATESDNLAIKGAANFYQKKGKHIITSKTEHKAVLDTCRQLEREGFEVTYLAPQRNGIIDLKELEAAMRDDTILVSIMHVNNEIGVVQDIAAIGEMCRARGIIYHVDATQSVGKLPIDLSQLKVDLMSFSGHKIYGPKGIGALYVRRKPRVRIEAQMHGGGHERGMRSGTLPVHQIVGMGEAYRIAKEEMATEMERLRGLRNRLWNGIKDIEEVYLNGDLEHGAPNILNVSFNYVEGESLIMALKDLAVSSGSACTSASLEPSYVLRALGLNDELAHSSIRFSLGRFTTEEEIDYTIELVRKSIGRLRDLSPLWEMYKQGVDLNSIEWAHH
Nature of the experiment: native MS; as isolated IscS alone; m/z range 4000-8000, charge states 17+ to 20+, deconvoluted. The note with it: remark: other sources report otherwise.

For experiment [2], the target named is T2, IscU, Fe-S cluster scaffold protein (E. coli) (E. coli), P0ACD4.
T2 chain: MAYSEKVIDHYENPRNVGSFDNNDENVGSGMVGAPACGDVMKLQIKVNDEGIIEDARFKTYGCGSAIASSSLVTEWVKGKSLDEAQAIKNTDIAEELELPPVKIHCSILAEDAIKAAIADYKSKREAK
Nature of the experiment: native MS; apo-IscU alone, aerobic; the dimer holds an inter-molecular disulfide and is almost completely lost 1 min after excess DTT. The note with it: remark: other sources report otherwise.

The values below come from publication PMC9769115.

B1: IscS, cysteine desulfurase (E. coli), dimer with PLP bound, P0A6B7 1-404 (enzyme)
chain: MKLPIYLDYSATTPVDPRVAEKMMQFMTMDGTFGNPASRSHRFGWQAEEAVDIARNQIADLVGADPREIVFTSGATESDNLAIKGAANFYQKKGKHIITSKTEHKAVLDTCRQLEREGFEVTYLAPQRNGIIDLKELEAAMRDDTILVSIMHVNNEIGVVQDIAAIGEMCRARGIIYHVDATQSVGKLPIDLSQLKVDLMSFSGHKIYGPKGIGALYVRRKPRVRIEAQMHGGGHERGMRSGTLPVHQIVGMGEAYRIAKEEMATEMERLRGLRNRLWNGIKDIEEVYLNGDLEHGAPNILNVSFNYVEGESLIMALKDLAVSSGSACTSASLEPSYVLRALGLNDELAHSSIRFSLGRFTTEEEIDYTIELVRKSIGRLRDLSPLWEMYKQGVDLNSIEWAHH
modifications: here or on the partner: pyridoxal phosphate (PLP) bound to each protomer; pyridoxal phosphate (PLP) bound to each protomer
Take B1: the stoichiometry N (usually the number of molecules, sites or subunits per partner or assembly) in experiment [1] came out at 2.

B2: IscU, Fe-S cluster scaffold protein (E. coli), P0ACD4 1-128 (natural protein)
chain: MAYSEKVIDHYENPRNVGSFDNNDENVGSGMVGAPACGDVMKLQIKVNDEGIIEDARFKTYGCGSAIASSSLVTEWVKGKSLDEAQAIKNTDIAEELELPPVKIHCSILAEDAIKAAIADYKSKREAK
For the molecule B2, the stoichiometry N in experiment [2] worked out at 2.
